Experimental data as given in publication PMC12136788.
The other results are listed elsewhere or left out.

B1: chr16:45382771:45382772:-_ENSMUSG00000022661_ENSMUST00000163230|mus_mus|mus_mus_mus_hu_True|1_1 (ssRNA)
RNA: GGGAGUUCUACAGUCCGACGAUCCUGGGUCAUGUUAUAAGACAAAUGGACAGGGAGGGCAUGCUUCUCAAAAAAUGUGAGCUAUUGUCUAAGACUAACAAUAUUUAUCUAGCUAUAAAAAUAAGUUAAAUGAAUAAACAUUACCAACAGAGGAUUGAGCAUCA
B2: chr8:74858975:74858976:-_ENSG00000154582_ENST00000284811|hu_mus|hu_hu_hu_mus_True|1_18 (ssRNA)
RNA: GGGAGUUCUACAGUCCGACGAUCGACCUUGUAGGUAAAAUACAUGCACACUUUUGAUAGCACAUGUGAGGGGAUCUCUCUAAAAUUGACCUCGUUGGUUUCAUUCUCAGCAAACUGACCUGGGCCACUCAACAUAGCUUUUAUCAACAGAGGAUUGAGCAUCA
B3: chr20:60962932:60962933:+_ENSG00000171858_ENST00000343986|hu_hu|FALSE|FALSE (ssRNA)
RNA: GGGAGUUCUACAGUCCGACGAUCGGAAUCAUCUGACUCACCCAUCCUACGAAUGGCCCCGCAGAUAGCAUAAGUUUUAAACUGGCCAUUAAACCUGCCUGUGACCUUGUCAACCUCGGCCACGUUCAUCUGGAUGGAUGCGUGCAACAGAGGAUUGAGCAUCA
B4: chr11:75578903:75578904:+_ENSMUSG00000020849_ENSMUST00000067664|mus_hu|FALSE|FALSE (ssRNA)
RNA: GGGAGUUCUACAGUCCGACGAUCUAGCUUCAAGUUACACAUACUGAACAAAAGAGGUUGAGCGAGCGAAGGAGGGGAGGAGUGAGGGGAAGGAGGUAGGGGGAGGGGGAAGGAGAAGAAACAAAAGAAUUGAACAGGCAUGCACAACAGAGGAUUGAGCAUCA
B5: chr8:101932682:101932683:-_ENSG00000164924_ENST00000353245|hu_hu|motif|central (ssRNA)
RNA: GGGAGUUCUACAGUCCGACGAUCAGACAUGGAAGCAGUUUUACACUGGCCCUUUUGAAGCCACAAUGUACCAAAAGUACGGUGCCAAACACUUAUAACUUGUAUAAAAAUUCCACAUCCCCAUAUUGGCCACCUCAAGAUGAACAACAGAGGAUUGAGCAUCA
B6: 120128408_120129817_729_3pUTR_ENSG00000163430_ENST00000295633|human|control|control (ssRNA)
RNA: GGGAGUUCUACAGUCCGACGAUCGUUGCUGCCUUUAGAGAACCAGCCAUCUGGAAUGAUCUCAGCUUCCAGCCACUGGAUGAUGCGACGUCGGAGCUCAUCACGGUUGGACUGAUAGCAAACAACUGGGCUGGCAGAUGGACUCAACAGAGGAUUGAGCAUCA
B7: chr19:582928:582929:+_ENSG00000172270_ENST00000353555|hu_hu|motif|central (ssRNA)
RNA: GGGAGUUCUACAGUCCGACGAUCGGGGCCGCAGGGCAGCAGCUCCCGGGCUCUCGUGAAACACUUCAGAAGGAAAAAAACCGGAGGAACAGAAUCCUGAAUGGAGAAAACCCAACUUUUUUAAAAAAGAAGGAAGUGUAUGAUCAACAGAGGAUUGAGCAUCA
B8: chrX:140365796:140365797:-_ENSMUSG00000031285_ENSMUST00000033642|mus_mus|mus_mus_mus_hu_False|38_48 (ssRNA)
RNA: GGGAGUUCUACAGUCCGACGAUCCUUCUCAUUACUCAGUGCCUGCAAGGUUCUGGUUCGGUAGAAGCUACAGUGGGCGCUGUGAGUGGGACUUGGAAGUCCAUUCAUCCGGGAGCCUCGCAUGUUCCUGGAUGUCUUAUCUCUCAACAGAGGAUUGAGCAUCA
B9: 102332062_102332290_2134_CDS_ENSMUSG00000023050_ENSMUST00000169377|mouse|control|control (ssRNA)
RNA: GGGAGUUCUACAGUCCGACGAUCUGAAGGGGGGCCCUUAGGACACCCAGGAAGCCCCACCCCACUUAGGGCUGCAUCUAGUUUAGGUAGCAACGACUCUGUCUUGAGAAUAUCUGGCCUUUUGCUGUGGGGCGACAGUUUCUGCAACAGAGGAUUGAGCAUCA
B10: 52344032_52344152_385_CDS_ENSG00000078618_ENST00000352171|human|control|control (ssRNA)
RNA: GGGAGUUCUACAGUCCGACGAUCUUCAUCCGCUCCUAGACGGGCAACCCGGCUGUUCUCGCCCAGAUCCUGUCCAUUGGGCUGCAGGUCAGGGCAGCUGCAGGUAGACUUCGCCUUGUUCCUUCCAGGCAUGGCCAGAAUAGGCAACAGAGGAUUGAGCAUCA
B11: 10163011_10163340_3299_CDS_ENSMUSG00000067851_ENSMUST00000088615|mouse|control|control (ssRNA)
RNA: GGGAGUUCUACAGUCCGACGAUCCACUCCAGUUCCUAUAAGUUGUGCCAGCUCUAACUGACUGAUGCACUUCAGGAUCUCAUGCCACGAAUUUCCUAAAUAAUUUCCAUCAGUGUGAGCCACCGUGAUGAGUGUUUUUAUUGUCAACAGAGGAUUGAGCAUCA
B12: 98536648_98538076_1479_CDS_ENSG00000057019_ENST00000326840|human|control|control (ssRNA)
RNA: GGGAGUUCUACAGUCCGACGAUCCCAUUUCUGCCCAUCAUCACUGUACAGGAUUCUGUAGGCAGACACAUAGUAAUUGUGCUCCACCAUGGUGGAUCCAGUGGUUAUAAUGCCUGUUAUUUUCUUUUCCUUAUUCAAAUCUAUCAACAGAGGAUUGAGCAUCA
B13: chr11:102546300:102546301:-_ENSMUSG00000020925_ENSMUST00000092569|mus_hu|motif|central (ssRNA)
RNA: GGGAGUUCUACAGUCCGACGAUCUGGGCCAAAUUCGGCCCGUGGGCAGUAGUUUGCCAACCCCUGGUAUAAAAUAUCGGCUUUGUCUUGUCAGAGAAAUUGCUGUCCUUAGGCUUCUAGACAAUCUGCUGCCUGAAGUCAAGUCAACAGAGGAUUGAGCAUCA
B14: 57178102_57183052_1624_CDS_ENSMUSG00000022749_ENSMUST00000023431|mouse|control|control (ssRNA)
RNA: GGGAGUUCUACAGUCCGACGAUCCUUGCCCACUCUGUCGCUGCUGCUCACGUGCCGGUCCACAGGAGUCGACGAGUUCUCAAUAAAGCUGAUGACCUUUUCCCUAACGGUAACGGAUUUUGUCUUUAGAGCCACAGUCAUUUUCAACAGAGGAUUGAGCAUCA

Biological target: T1, UNK ZnF1-3 (human, UniProt Q9C0B0 31-174)
T1 sequence: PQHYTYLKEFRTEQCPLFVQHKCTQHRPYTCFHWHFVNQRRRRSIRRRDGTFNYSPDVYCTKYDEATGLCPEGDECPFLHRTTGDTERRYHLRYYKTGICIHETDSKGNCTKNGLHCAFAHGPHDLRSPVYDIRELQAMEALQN
Test: nsRBNS (natural sequence RNA bind-n-seq); RBNS binding buffer (assumed for nsRBNS): 25 mM Tris pH 7.5, 150 mM KCl, 3 mM MgCl2, 0.01% Triton X-100, 500 ug/ml BSA, 20 U/ml SUPERase-In, 4 C; UNK is unkempt and MSI1 is Musashi-1; names of the RNAs are library labels; protein concentration not given here; high values mean tight binding

Row | Binder | binding signal [enrichment R]
1 | B1 | 2.2
2 | B2 | 0.793
3 | B3 | 0.384
4 | B4 | 1.81
5 | B5 | 1.46
6 | B6 | 0.762
7 | B7 | 1.87
8 | B8 | 0.5
9 | B9 | 1.03
10 | B10 | 0.607
11 | B11 | 0.897
12 | B12 | 0.726
13 | B13 | 0.686
14 | B14 | 0.923
